Test results from the antibiotic and cytotoxicity screens of Wong et al. (2023).
The other results are listed elsewhere or left out.

test system: HepG2; assay: cytotoxicity call (relative viability < 0.9); conditions: 10 µM

SMILES	cytotoxicity call
CCOC(=O)N(C)C[C@H]1OCc2cnnn2CCCC(=O)N([C@@H](C)CO)C[C@@H]1C	inactive
O=C1CO[C@H]2CN(C(=O)COc3ccccc3)C[C@@H]2N1	inactive
C[C@H]1CCCCO[C@@H](CN(C)C(=O)Nc2ccc(F)cc2)[C@@H](C)CN([C@@H](C)CO)C(=O)c2cc(NC(=O)C3CCCCC3)ccc2O1	inactive
Oc1c(Cl)cc(Cl)cc1Sc1cc(Cl)cc(Cl)c1O	active
COc1ccccc1-c1cnc2c(c1)C(=O)N([C@@H](C)CO)C[C@@H](C)[C@@H](CN(C)C(=O)c1cccnc1)O2	inactive
C[C@H]1CN([C@@H](C)CO)C(=O)c2cc(NC(=O)CCCN(C)C)ccc2O[C@@H]1CN(C)S(=O)(=O)c1ccccc1	inactive
Nc1ncnc2c1ncn2[C@@H]1O[C@H](CO)C[C@H]1O	inactive
Cc1cc(C(=O)Nc2cccc3c2O[C@@H](CN(C)S(=O)(=O)c2ccccc2)[C@H](C)CN([C@@H](C)CO)C3=O)n(C)n1	inactive
COC(=O)[C@H](Cc1ccccc1)N1CC2=C[C@@H](C3CC3)n3c(=O)n(C)c(=O)n3[C@H]2[C@@H]1[C@@H](O)CCn1cc(C(=O)NO)nn1	inactive
C[C@@H]1CCCCO[C@@H](CN(C)S(C)(=O)=O)[C@H](C)CN([C@H](C)CO)C(=O)c2cc(NC(=O)Nc3cccc4ccccc34)ccc2O1	inactive
